# From the supplement of paper PMC9433436
# ± gives the standard deviation of the averaged measurements. Over roughly 4,100 sequences, “relative kcat/Km (krel) vs genomic leader AAAGAU” has its median near 1.7; the highest 2% begin near 6.5. The entries are a selection whose mix differs from that of the whole data set.
# Molecular target: T1, E. coli RNase P holoenzyme (M1 P RNA + rnpA protein) (UniProt P0A7Y8)
# T1 sequence: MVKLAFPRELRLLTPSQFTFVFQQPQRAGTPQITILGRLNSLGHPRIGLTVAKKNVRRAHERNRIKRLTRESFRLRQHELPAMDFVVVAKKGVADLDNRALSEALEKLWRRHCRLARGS
# Test: relative kcat/Km (krel) vs genomic leader AAAGAU (relative (reference leader = 1)); higher = faster RNase P cleavage
# Method: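 HTS-Kin: a pool of ptRNA-Met (21C construct) with all 4096 combinations of 5' leader nucleotides N(-6) to N(-1) was processed in vitro by E. coli RNase P (P RNA + rnpA/C5 protein) under multiple-turnover conditions at 37 C, pH 8, 17.5 mM MgCl2. Residual substrate was Illumina-sequenced at several fractions reacted, and relative kcat/Km (krel) was computed by internal competition kinetics, calibrated to the genomic leader (AAAGAU = 1). The listed hexamer is the varied N(-6)..N(-1) leader (DNA letters), and it sits between a fixed 5' stem-loop flank (GCAUGCACGAAAGUGCGUGCUAUGAA) and the mature tRNA-Met starting GGCUACGUAGCUCAGUUGG. Two technical replicates are averaged.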
# [1] = fraction of substrate reacted: ~9-10% (9.79% repeat 1, 9.1% repeat 2)
# [2] = fraction of substrate reacted: ~13-16% (15.68% repeat 1, 13.17% repeat 2)
# [3] = fraction of substrate reacted: ~26-29% (28.66% repeat 1, 26.4% repeat 2)
Sequence,relative kcat/Km [1],relative kcat/Km [2],relative kcat/Km [3]
GATCTC,1.37 ± 0.23,1.37 ± 0.5,2.07 ± 0.39
GTCTTG,2.05 ± 1.9,1.96 ± 0.21,3.58 ± 0.69
GTAAAA,1.7 ± 1.3,1.99 ± 0.54,2.88 ± 0.32
AAGGCT,–,–,1.05 ± 0.71
CACGCA,2.14 ± 0.48,3.31 ± 1.5,4.91 ± 1.6
TTAGCA,0.98 ± 0.024,1.55 ± 0.12,2.26 ± 1.1
CGATCT,1.67 ± 1.1,2.87 ± 1.8,4.11 ± 1.9
TAAACG,1.36 ± 1.2,–,1.52 ± 0.4
ATCTAT,3.93 ± 1.4,5.38 ± 1,–
TATCAG,2.12 ± 2.1,1.76 ± 0.033,3.25 ± 1.1
GGGCCT,0.773 ± 0.081,0.888 ± 0.77,1.13 ± 0.44
CTGAGA,–,1.85 ± 0.35,2.05 ± 0.27
CAACTA,1.32 ± 0.84,0.424 ± 0.32,1.1 ± 0.37
CAAAGA,2.63 ± 1.1,1.78 ± 0.057,3.03 ± 0.49
CTTGTG,–,–,0.748 ± 0.26
TGGTTT,–,–,1.22 ± 0.7
ATTGAC,2.74 ± 0.31,3.01 ± 0.55,4.33 ± 1.6
CTTGAG,1.11 ± 0.75,–,1.36 ± 0.41
GGCGAA,2.38 ± 1.1,2.86 ± 0.39,3.85 ± 1.4
TTACTA,1.45 ± 1.2,1.28 ± 0.5,2.33 ± 0.77
TGCTAC,2.42 ± 1.5,2.16 ± 0.89,4.62 ± 2.6
CCTGAC,1.9 ± 0.12,2.19 ± 0.76,3.67 ± 1.8
ATCGCC,4.35 ± 0.56,5.34 ± 2,7.69 ± 3

Sequence,relative kcat/Km [1],relative kcat/Km [2],relative kcat/Km [3]
CTATGA,3.21 ± 0.41,3.33 ± 0.2,5.58 ± 1.9
TAGAGC,0.945 ± 0.65,1.76 ± 0.038,2.28 ± 0.22
CGAGTT,0.554 ± 0.28,0.719 ± 0.2,–
GTCACG,–,1.84 ± 0.86,3.97 ± 0.54
ATGATA,1.42 ± 0.71,0.856 ± 0.28,1.7 ± 0.84
ATAACC,1.4 ± 0.97,1.05 ± 0.42,1.37 ± 0.052
TTAACG,0.394 ± 0.1,–,0.816 ± 0.016
AATAAG,–,0.98 ± 0.26,2.36 ± 0.67
CGGAAT,0.343 ± 0.096,0.823 ± 0.49,1.11 ± 0.047
GCTTTT,1.48 ± 0.18,2.05 ± 0.041,2.78 ± 1
GGCCAG,–,0.781 ± 0.14,2.04 ± 0.3
TAGACA,1.73 ± 0.61,2.047 ± 0.0097,3.05 ± 1.7
GGGCGC,0.727 ± 0.11,0.511 ± 0.34,1.24 ± 0.14
ATATCC,2.49 ± 2.1,2.13 ± 0.23,2.56 ± 0.59
GGGTCA,–,–,0.848 ± 0.71
CGACTA,1.64 ± 0.35,1.27 ± 0.55,1.8 ± 0.51
ACTAGG,–,–,0.408 ± 0.15
TTCGGC,–,–,2.28 ± 1.8
GGTGCC,–,0.824 ± 0.51,0.763 ± 0.43
CTAAGA,2.095 ± 0.0059,1.72 ± 1.1,3.49 ± 2
CGGATA,1.24 ± 0.28,0.89 ± 0.2,1.22 ± 0.66
CATTTA,2.8 ± 1.2,2.69 ± 0.1,3.9 ± 1.3
TGCTCC,2.19 ± 0.87,2.31 ± 0.43,2.87 ± 0.78

Sequence,relative kcat/Km [1],relative kcat/Km [2],relative kcat/Km [3]
GGGGAA,–,0.688 ± 0.52,1.27 ± 0.81
ACTACG,–,–,1.48 ± 0.089
TCGTGA,2.52 ± 0.93,1.89 ± 0.23,3.79 ± 1.2
ACAAAG,–,0.516 ± 0.21,1.39 ± 0.37
CTGGCA,–,0.28 ± 0.23,–
CCCGCA,3.38 ± 0.43,3.43 ± 1.2,4.58 ± 1.4
TGCAAG,–,–,1.57 ± 0.045
CATGTA,1.86 ± 0.024,1.84 ± 0.26,2.19 ± 0.65
AATCCA,1.48 ± 1.2,0.978 ± 0.48,1.64 ± 0.25
GATGAT,–,0.7562 ± 0.0044,1.46 ± 0.9
CTAATA,1.84 ± 1.2,1.41 ± 0.16,2.03 ± 0.38
CCTGAA,1.27 ± 0.34,1.81 ± 0.17,2.41 ± 1.2
AGAGTT,–,1.16 ± 0.89,1.02 ± 0.045
ACCGTC,2.81 ± 0.91,2.48 ± 0.27,3.86 ± 1.3
AACATG,–,–,1.71 ± 0.03
CGCATA,1.98 ± 1.9,1.79 ± 0.48,3.42 ± 0.82
AGAAGA,1.99 ± 0.66,2.47 ± 0.38,3.9 ± 1.7
GAGCAG,–,0.164 ± 0.047,1.27 ± 0.062
CACAGT,–,–,1.95 ± 1.9
ACTCGT,–,–,2.02 ± 1.7
AGGGAA,0.824 ± 0.22,1.38 ± 0.58,1.32 ± 0.52
TCCCCA,1.8 ± 0.75,2.78 ± 0.29,3.93 ± 1.5
GCATGA,1.91 ± 0.28,1.07 ± 0.63,2.21 ± 0.69
